From the RNAGym collection of RNA variant scans (doi:10.7554/elife.90254)
The source gives no read counts; variants with many changes may rest on few reads.

B1: LINE1-mini (parent)
chain: GGCAGAGCUCAACACAGCGUGGCAAAGUGGCUGUGGCUAGACUGCC

Variants of: B1
Experiment: self-cleavage, relative activity (ratio to wild type); higher = more cleavage; in vitro, sequencing; the parent is a self-cleaving ribozyme
Variant G1U A39U C45A has a self-cleavage of 0.83. Variant G1U A39U G40A C42G U43A has a self-cleavage of 0.01. With G1U A41G G44C the self-cleavage was 0.04. Variant G1U A41U C45U has a self-cleavage of 0.12. For G1U C3A A11U U20G, the self-cleavage was 0.03. In the case of G1U C3A A26G C37G U38G, the self-cleavage is reported as 0.04. Work on G1U C3A C8A G17U U20G C37U G40C yielded a self-cleavage of 0.07. In the case of G1U C3A C8G U43A, the self-cleavage is reported as 0.05. Variant G1U C3A C8U A26C has a self-cleavage of 0.55. For G1U C3A C10U, the self-cleavage was 0.94. Variant G1U C3A C31A C45G has a self-cleavage of 0.26. Variant G1U C3A G5A U9A has a self-cleavage of 1.87. With G1U C3A G5U G33A the self-cleavage was 0.37. Variant G1U C3A G5U U32G U38G C42A has a self-cleavage of 0.19. G1U C3A G21U showed a self-cleavage of 1.68. With G1U C3A U9G C10U G19A U20C U32A the self-cleavage was 0.07. For G1U C3A U20C, the self-cleavage was 0.14. In the case of G1U C3A U20C C23G G30A, the self-cleavage is reported as 0.34. For G1U C3G A4G, the self-cleavage was 0.05. With G1U C3G A4G G29C U38G the self-cleavage was 0.01. For G1U C3G A4U C8G A39G C45A, the self-cleavage was 0.26. In the case of G1U C3G A6C G33U C46U, the self-cleavage is reported as 0.04. Work on G1U C3G A12G yielded a self-cleavage of 0.06. Variant G1U C3G A16U G27A G35C has a self-cleavage of 0.13. In the case of G1U C3G C10A A16C C18U, the self-cleavage is reported as 0.02. In the case of G1U C3G C10A C18A G21A U43A, the self-cleavage is reported as 0.03. G1U C3G C10G A14G gave a self-cleavage of 0.06. In the case of G1U C3G C18U G19A G27U C31G C46A, the self-cleavage is reported as 0.03. For G1U C3G G29C, the self-cleavage was 0.04. With G1U C3G G36C the self-cleavage was 0.03. Variant G1U C3G G40A has a self-cleavage of 0.02. In the case of G1U C3G G40C, the self-cleavage is reported as 0.05. Variant G1U C3G U9C G33A has a self-cleavage of 0.04. G1U C3G U28G showed a self-cleavage of 0.05. Work on G1U C3U A6G U34A yielded a self-cleavage of 0.04. Variant G1U C3U A11G A16U A25G has a self-cleavage of 0.01. Variant G1U C3U A11U has a self-cleavage of 0.03. G1U C3U A12U U20G A24G showed a self-cleavage of 0.19. For G1U C3U C10U C13G C42A, the self-cleavage was 0.19. G1U C3U C18A gave a self-cleavage of 0.13. In the case of G1U C3U C37U A39U G44A, the self-cleavage is reported as 0.04. Variant G1U C3U G5U A14C has a self-cleavage of 0.15. G1U C3U G17U U20G A41U showed a self-cleavage of 0.06. G1U C3U G19U showed a self-cleavage of 0.13. G1U C3U U34G C46G gave a self-cleavage of 0.14. Work on G1U C8A A11C C13G A16G G21A U28A U43G yielded a self-cleavage of 0.01. Work on G1U C8A A11C G44U C46A yielded a self-cleavage of 0.02. G1U C8A C10U C15G C23U G33A G36C gave a self-cleavage of 0. In the case of G1U C8A C10U C15U G40U, the self-cleavage is reported as 0.04. G1U C8A C13U G22A gave a self-cleavage of 0.28. With G1U C8A C18A G27U the self-cleavage was 0.01. With G1U C8A C18A U28A G29U C31G the self-cleavage was 0.01. Variant G1U C8A G17C G36U C37U A41C has a self-cleavage of 0.02. Work on G1U C8A G21A yielded a self-cleavage of 0.21. With G1U C8A G27A the self-cleavage was 0.04. For G1U C8A G27U A39C, the self-cleavage was 0.07. With G1U C8A U34A C46G the self-cleavage was 0.02. For G1U C8A U38A A39C, the self-cleavage was 0.06. Work on G1U C8G A11G yielded a self-cleavage of 0.01. G1U C8G A26U U32G showed a self-cleavage of 0.01. G1U C8G C10U A25U G30C gave a self-cleavage of 0.03. G1U C8G C13U showed a self-cleavage of 0.14. Variant G1U C8G G21U has a self-cleavage of 0.01. For G1U C8G G22A A24C, the self-cleavage was 0.02. G1U C8G G22U gave a self-cleavage of 0.03. In the case of G1U C8G G27U, the self-cleavage is reported as 0.02. Work on G1U C8G G36A yielded a self-cleavage of 0.03. G1U C8G G40U C45G gave a self-cleavage of 0.1. In the case of G1U C8U A12C A39G, the self-cleavage is reported as 0.01. G1U C8U A14G G19A gave a self-cleavage of 0.05. G1U C8U A14U U20C A25U U28C G36U showed a self-cleavage of 0.16. For G1U C8U C10A C18G U20A A25C G29C C45G C46U, the self-cleavage was 0. In the case of G1U C8U C13G U20C C42A, the self-cleavage is reported as 0.03. Variant G1U C8U C18A G19C U32A has a self-cleavage of 0.01. G1U C8U C18A G40C gave a self-cleavage of 0.09. G1U C8U G17A C31A G40A gave a self-cleavage of 0.02. G1U C8U G21U gave a self-cleavage of 0.23. G1U C8U G22U U32A G44C gave a self-cleavage of 0.04. For G1U C8U G36U C45A, the self-cleavage was 0.06. In the case of G1U C8U U9A C13A, the self-cleavage is reported as 0.13. G1U C10A A11C G19A G21A U43C C45U showed a self-cleavage of 0.01. For G1U C10A A11U C37A, the self-cleavage was 0.01. For G1U C10A A14C C37G C46A, the self-cleavage was 0.01. With G1U C10A A25G the self-cleavage was 0.02. With G1U C10A C13G A41G the self-cleavage was 0.02. For G1U C10A C15U G30U, the self-cleavage was 0.02. Work on G1U C10A C42A yielded a self-cleavage of 0. Variant G1U C10A G30C G44A has a self-cleavage of 0.02. G1U C10A G40A C42U gave a self-cleavage of 0.01. G1U C10A U28A C37A U43A showed a self-cleavage of 0.01. With G1U C10A U32G G44U the self-cleavage was 0. For G1U C10G A11G, the self-cleavage was 0.01. With G1U C10G A11U C18U the self-cleavage was 0.01. G1U C10G A14U A26G G30A G40U showed a self-cleavage of 0. G1U C10G C13G C31A showed a self-cleavage of 0.01. In the case of G1U C10G C15U G30U C46U, the self-cleavage is reported as 0.02. For G1U C10G C23A, the self-cleavage was 0. G1U C10G C46U gave a self-cleavage of 0.02. In the case of G1U C10G G22A A39C, the self-cleavage is reported as 0.01. G1U C10G U20A G40U gave a self-cleavage of 0.01. G1U C10U A11U showed a self-cleavage of 0.02. Variant G1U C10U A41C has a self-cleavage of 0. Work on G1U C10U C13A G30A C37A yielded a self-cleavage of 0.01. G1U C10U C42G gave a self-cleavage of 0.01. With G1U C10U G27A G29U the self-cleavage was 0.09. Work on G1U C10U U32G C42A yielded a self-cleavage of 0. For G1U C10U U38A, the self-cleavage was 0. For G1U C13A A14G G36U, the self-cleavage was 0.03. Variant G1U C13A A16G G17C has a self-cleavage of 0.07. With G1U C13A A24G the self-cleavage was 0.16. In the case of G1U C13A A24G G27C U38C, the self-cleavage is reported as 0. For G1U C13A A39C, the self-cleavage was 0.02. G1U C13A A41G gave a self-cleavage of 0.07. G1U C13A C15U showed a self-cleavage of 0.02. For G1U C13A C23U, the self-cleavage was 0.03. In the case of G1U C13A C42G, the self-cleavage is reported as 0.04. With G1U C13A G17C C31U C45U the self-cleavage was 0.02. In the case of G1U C13A G19U C42A C45U, the self-cleavage is reported as 0.07. For G1U C13A G22U A26U, the self-cleavage was 0.22. In the case of G1U C13A G40A U43A, the self-cleavage is reported as 0.03. In the case of G1U C13A U38C A39G, the self-cleavage is reported as 0.05. G1U C13G C15A G17A A25U gave a self-cleavage of 0.12. G1U C13G C23U A24U U43C gave a self-cleavage of 0.03. Variant G1U C13G G17U G22U A24U G40C has a self-cleavage of 0.24. Variant G1U C13G G27A A39U has a self-cleavage of 0.13. Variant G1U C13G G29C has a self-cleavage of 0.02. G1U C13G G29U gave a self-cleavage of 0.16. For G1U C13G G36A, the self-cleavage was 0.02. In the case of G1U C13G U28C U34A C37A, the self-cleavage is reported as 0.02. Work on G1U C13G U43A yielded a self-cleavage of 0.02. In the case of G1U C13U A14U G17C G19A, the self-cleavage is reported as 0.14. In the case of G1U C13U A16G G22U U32C G36A G40U, the self-cleavage is reported as 0.02. With G1U C13U A24U G33C C45U the self-cleavage was 0.02. G1U C13U A26C G35U showed a self-cleavage of 0.13. For G1U C13U A26U G33U, the self-cleavage was 0.03. G1U C13U A41G gave a self-cleavage of 0.06. With G1U C13U C15G G21A the self-cleavage was 0.02. Variant G1U C13U C15U G17U C31A has a self-cleavage of 0.01. G1U C13U C18A A24C showed a self-cleavage of 0.05. G1U C13U C23G G29A U34A gave a self-cleavage of 0.06. In the case of G1U C13U C31A U32A U34C G40C, the self-cleavage is reported as 0.06. For G1U C13U G29U, the self-cleavage was 0.17. With G1U C13U U20G U38A the self-cleavage was 0.04. Work on G1U C13U U28C yielded a self-cleavage of 0.08. Work on G1U C13U U32C A39G yielded a self-cleavage of 0.01. In the case of G1U C15A A24C U28C, the self-cleavage is reported as 0.06. With G1U C15A A25C the self-cleavage was 0.04. Work on G1U C15A C37U C46A yielded a self-cleavage of 0.03. Work on G1U C15A C45A yielded a self-cleavage of 0.06. Work on G1U C15A G21U U32G yielded a self-cleavage of 0.03. Variant G1U C15A G36U G44C has a self-cleavage of 0.02. Work on G1U C15A U20A G29U G40A U43G yielded a self-cleavage of 0.01. G1U C15A U43A showed a self-cleavage of 0. In the case of G1U C15G A25C G36U, the self-cleavage is reported as 0. With G1U C15G C18U U43C the self-cleavage was 0. Variant G1U C15G G17A G19A G22U U38A has a self-cleavage of 0.01. With G1U C15G G22A the self-cleavage was 0.04. Work on G1U C15G G33U C37G C45G yielded a self-cleavage of 0.01. Variant G1U C15U A24C U32G G40A has a self-cleavage of 0.05. G1U C15U C18U G29U A39G showed a self-cleavage of 0.01. In the case of G1U C15U C23G C37U, the self-cleavage is reported as 0.02. Work on G1U C15U C31A C37U yielded a self-cleavage of 0.06. For G1U C15U G29C C31G, the self-cleavage was 0.08. Variant G1U C15U G44U has a self-cleavage of 0.08. Variant G1U C15U U38G has a self-cleavage of 0.01. G1U C18A G22U C31A gave a self-cleavage of 0.05. In the case of G1U C18A G30U A39C A41U, the self-cleavage is reported as 0.01.
